Read counts are not given, so values of variants with three or more changes are uncertain.

Results on 21 variants are retold here after the RNAGym collection of RNA variant scans (doi:10.7554/elife.90254).

The labels stand for the following.
B1: OR4K15 (parent)
chain: GUUAACGGUCAUAGGCCAUGGAAACUAGGAGCACCAUUUCGCUGCCAGUGAAGAAAUGAACAAAGAAAAUCUGGGCCAGGCAGGCAUCAAAAGAAAUAGUCUUGCGCUCAACCAGAAAGUCUGUAAUCAUUUUAAGGGUA

The variants in this data set derive from B1. In words: self-cleavage, relative activity (ratio to wild type); higher = more cleavage; in vitro, sequencing; the parent is a self-cleaving ribozyme.
As for GUUAACGGUCAUAGGCCAUGGAAGCUAGGAGCACCAUUUCGCUGCCAGUGAAGAAAUGAACAAAGAAAAUCUGGGCCAGGCAGGCAUCAAAAGAAAUAGUCCUGCGCUCAACCAGAAAGUCUGUAAUCAUUAUAAGGGUA [A24G U102C U132A], the self-cleavage was 2.12.

As to GUUAACGGUCAUAGGCCAUGGAAGCUAGGAGCACCAUUACGCUGCCAGUGAAGAGAUGAACAAAGAAAAUCUGGGCCAGGCAGGCAUCAAAAGAAAUAGUCUUGCGCUCAACCAGAAAGUCUGUAAUCAUUUUAAGGGUA [A24G U39A A55G], the self-cleavage was found to be 0.63.

Consider GUUAACGGUCAUAGGCCAUGGAAGCUAGGAGCACCAUUUCGCGGCCAGUGAGGAAAUGAACAAAGAAGAUCUGGGCCAGGCAGGCAUCAAAAGAAAUAGUCUCGCGCUCAACCAGAAAGUCUGUAAUCAUUUUAAGGGUA [A24G U43G A52G A68G U103C], for which the self-cleavage was determined as 1.93.

Take GUUAACGGUCAUAGGCCAUGGAAGCUAGGAGCACCAUUUCGCGGCCAGUGAAGAAAUGAACAAGGAAAAUCUGGGCCAGGCAGGCAUCAAAAGAAGUAGUCUUGCGCUCAACCAGAAAGUCUGUAAUCAUUUUAAGGGUA [A24G U43G A64G A96G]: the self-cleavage was found to be 1.22.

For GUUAACGGUCAUAGGCCAUGGAAGCUAGGAGCACCAUUUCGCUGCCAGUGAAGAAAUGAACAAAGAAAAUCUGGGCCAAGCAGGCAUCAAAAGAAAUUGUCUUGCGCUCAACCAGAAAGUCUGUAAUCAUUUUAAGGGUA [A24G G79A A98U], the self-cleavage was 0.14.

Turning to GUUAACGGUCAUAGGCCAUGGAAGCUAGGAGCACCAUUUCGCUGCCAGUGAAGAAAUGAACAAAGAAAAUCAGGGCCAGGCAGGCAUCGAAAGAAAUAGUCUUGCGCUCAACCAGAAAGUCCGUAAUCAUUAUAAGGGUA [A24G U72A A89G U122C U132A], the self-cleavage was 0.11.

Regarding GUUAACGGUCAUAGGCCAUGGAAGCAAGGAGCACCAUUCCGCUGCCAGUGAAGAGAUGAACAAAGAAAAUCUGGGCCAGGCAGGCAUCAAAAGAAAUAGUCUUGCGCUCAACCAGAGAGUCUGUAAUCAUUUUAAGGGUA [A24G U26A U39C A55G A117G], the self-cleavage turned out to be 0.93.

For the variant GUUAACGGUCAUAGGCCAUGGAAGCUAGGAGCACCACUUCGCUGCCGGUGAAGAAAUGUACAAAGAAAAUCUGGGCCAGGCAGGCAUCAGAAGAAAUAGUCUUGCGCUCAACCAGAAAGUCUGUAAUCAUUUCAAGGGUA [A24G U37C A47G A59U A90G U133C], the self-cleavage was determined as 1.71.

As for GUUAACGGUCAUAGGCCAUGGAAGCUAGGAGCACCAUUACGCUGCCAGUGAAGAAAUGAACAUAGAAAAUCUGGGCCAGGCAGGCAUCCAAAGAAAUAGUCUUGCGCUCAACCAGAAAGCCUGUAAUCAUUUUAAGGGUA [A24G U39A A63U A89C U120C], the self-cleavage was found to be 0.74.

For the variant GUUAACGGUCAUAGGCCAUGGAAGCUAGGAGCACCAUUUCGCUGCCAGUGAAGAAAUGAACAAAGAAAAUCUGGGCCAGGCAGGCAUCAAAAGAAAUAGUCCUGCGCUCAACCAGAAAGUCUGUAACCAUUUUAAGGGUA [A24G U102C U127C], the self-cleavage came out at 0.77.

Take GUUAACGGUCAUAGGCCAUGGAAGCUAGGAGCACCAUUUCGCUGCCAGUGAAGAAAUGAACAAAGAAAAUCUGGGCCAGGCAAGCAUCAAAAGAAAUAGUCUUGCGCUCAACCAGAAAGUCUGUAAUCAUUUUAAGGGUU [A24G G83A A140U]: the self-cleavage stood at 0.63.

Take GUUAACGGUCAUAGGCCAUGGAAGCUAGGAGCACCAUUUCGCCGCCAGCGAAGAAAUGAACAAGGAAAAUCUGGGCCAGGCAGGCAUCAAAAGAAAUAGUCUUGCGCUCAACCAGAAAGUCUGUAAUCAUUUUAAGGGUA [A24G U43C U49C A64G]: the self-cleavage was found to be 1.28.

As to GUUAACGGUCAUAGGCCAUGGAAGCGAGGAGCACCAUUUCGCCGCCAGUGAAGAGAUGAGCAAAGAAAAUCAGGGCCAAGCAGGCAUCAAGAGAAAUAGUCUUGCGCUCAACCAGAAAGUCUGUAAUCAUUUUAAGGGUA [A24G U26G U43C A55G A60G U72A G79A A91G], the self-cleavage was found to be 0.18.

With GUUAACGGUCAUAGGCCAUGGAAGCUAGGAGCACCAUUUCGCCGCCAGUGAAGAAAUGAACAAAGAAAAUCUGGGCCAGGCAGGCAUCAAAAGGAAUAGCCUUGCGCUCAACCAGAAAGUCUGUAAUCAUUUUAAGGGUA [A24G U43C A94G U100C], the self-cleavage amounted to 2.28.

With GUUAACGGUCAUAGGCCAUGGAAGCUAGGAGCACCAUCUCGCUGCCAGUGAAGAAAUGAACAAAGAAGAUCUGGGCCAGGCAGGCAUCAAAAGAAAUAGUCUUGCGCUCAACCAGAAAGUCUGUAAUCAUUUUAAGGGUA [A24G U38C A68G], the self-cleavage was determined as 0.98.

As to GUUAACGGUCAUAGGCCAUGGAAGCUAGGAGCACCAUCUCGCUGCCAGUGAAGAAAUGAACAAGGAAAAUCUGGGCCAGGCUGGCAUCAAAAGAAAUAGUCUUGCGCUCAACCAGAAAGUCAGUAAUCAUUUUAAGGGUA [A24G U38C A64G A82U U122A], the self-cleavage was 0.12.

On to GUUAACGGUCAUAGGCCAUGGAAGCAAGGAGCUCCAUUUCGCUGCCAGUGAAGAAAUGAACAAAGAAUAUCUGGGCCAGGCAGGCAUCAAAAGAAAUAGUCUUGCGCUCAACCUGAAAGUCUGUAAUCAUUUUAAGGGUA [A24G U26A A33U A68U A114U], for which the self-cleavage worked out at 0.06.

Turning to GUUAACGGUCAUAGGCCAUGGAAGCUAGGAGCACCAUUUCGCUGCCAGUGAAGAAAUGAACAAAGAAAAUCUGGGCCAGGCAGGCACCAAAAGAAGUAGUCUUGUGCUCAACCAGAAAGUCUGUAAUCAUUUUAAGGGUA [A24G U87C A96G C105U], the self-cleavage turned out to be 0.07.

As for GUUAACGGUCAUAGGCCAUGGAAGCUAGGAGCACCAUUUCGCUGCCAGUGAAGAAAUGAACAAAGAAAAUCUGGGCCAGGCAGGCACCAAAAGAAAUAGUCUUGCGCUCAACCAGAAAGUCUGUAAUCAUUUCAAGGGUA [A24G U87C U133C], the self-cleavage turned out to be 1.3.

On to GUUAACGGUCAUAGGCCAUGGAAGCUAGGAGCACCAUUUCGCCGCCAGUGAAGAAAUGAACAAAGAAAAUCUGGGCCAGGCAGGCACCAAAAGAAAUAGCCUUGCGCUCAACCAGAAAGUCUGUAAUCAUUUUAAGGGUA [A24G U43C U87C U100C], for which the self-cleavage worked out at 2.24.

Regarding GUUAACGGUCAUAGGCCAUGGAAGCUAGGAGCACCAUUCCGCUGCCAGUGAAGAAAUGAACAAAGAAAAUCUGGGCCAGGCUGGCAUCAAAAGAAAUAGUCUUGCGCUCGACCAGAAAGUCUGUAAUCAUUUUAAGGGUA [A24G U39C A82U A110G], the self-cleavage was determined as 0.1.
